This is one part of the list. These are enrichments in a pooled selection; single values are uncertain. Scores sum up all selected molecules that hold the word; the word was not tested alone.
How the values were obtained:
Assay in all cases: 6-mer SELEX enrichment z-score vs GST control; IMP3 is the RNA-binding protein IGF2BP3; higher = more enriched by binding
IMP3 KH1-4 = settings: construct: KH1-4 (164-579); SELEX round: R4
Procedure: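 SELEX-seq with GST-tagged IMP3 KH1-4 (Pro164-Lys579) and an N40 RNA pool, round 4. 6-mer z-score of sequence-tag enrichment normalised to the corresponding GST SELEX round; RNA k-mers written as DNA (T for U).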

IMP3 RRM1-2 = settings: construct: RRM1-2 (1-163); SELEX round: R2
Procedure: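 SELEX-seq with GST-tagged IMP3 RRM1-2 (Met1-Asn163) and an N40 RNA pool, round 2. 6-mer enrichment z-score normalised to GST SELEX. RNA written as DNA (T = U).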

IMP3 KH1-2 = settings: construct: KH1-2 (164-376); SELEX round: R4
Procedure: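 SELEX-seq with GST-tagged IMP3 KH1-2 (Pro164-Phe376) and an N40 RNA pool, round 4 (stringent 300/600 mM KCl washes). 6-mer z-score of sequence-tag enrichment normalised to the corresponding GST SELEX round; RNA k-mers written as DNA (T for U).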

IMP3 KH3-4 = settings: construct: KH3-4 (377-579); SELEX round: R4
Procedure: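 SELEX-seq with GST-tagged IMP3 KH3-4 (Pro377-Lys579) and an N40 RNA pool, round 4. 6-mer z-score of sequence-tag enrichment normalised to the corresponding GST SELEX round; RNA k-mers written as DNA (T for U).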

IMP3 RRM1-2, sequence (chain, as listed by the source): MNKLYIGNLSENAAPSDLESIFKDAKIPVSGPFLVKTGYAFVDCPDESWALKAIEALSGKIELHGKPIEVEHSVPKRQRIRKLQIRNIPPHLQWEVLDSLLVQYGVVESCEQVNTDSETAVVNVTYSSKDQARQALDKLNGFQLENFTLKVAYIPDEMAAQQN
IMP3 KH1-4, sequence (chain, as listed by the source): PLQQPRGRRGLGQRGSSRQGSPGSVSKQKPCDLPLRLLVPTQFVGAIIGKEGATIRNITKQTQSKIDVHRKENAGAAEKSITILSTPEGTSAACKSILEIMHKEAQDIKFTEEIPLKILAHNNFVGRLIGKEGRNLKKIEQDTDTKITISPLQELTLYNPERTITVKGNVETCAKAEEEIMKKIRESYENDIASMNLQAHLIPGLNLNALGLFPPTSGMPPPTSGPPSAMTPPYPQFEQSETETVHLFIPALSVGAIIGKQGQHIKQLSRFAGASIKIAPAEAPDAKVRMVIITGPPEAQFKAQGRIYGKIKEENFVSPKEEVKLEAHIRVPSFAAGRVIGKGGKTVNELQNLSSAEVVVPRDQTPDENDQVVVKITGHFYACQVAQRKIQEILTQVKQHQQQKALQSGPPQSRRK
IMP3 KH1-2, sequence (chain, as listed by the source): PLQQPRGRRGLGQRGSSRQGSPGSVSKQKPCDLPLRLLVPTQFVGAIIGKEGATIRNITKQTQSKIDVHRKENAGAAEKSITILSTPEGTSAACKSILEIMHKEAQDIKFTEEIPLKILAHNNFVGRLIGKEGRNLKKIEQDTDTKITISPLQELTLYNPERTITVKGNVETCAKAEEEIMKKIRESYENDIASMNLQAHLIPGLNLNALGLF
IMP3 KH3-4, sequence (chain, as listed by the source): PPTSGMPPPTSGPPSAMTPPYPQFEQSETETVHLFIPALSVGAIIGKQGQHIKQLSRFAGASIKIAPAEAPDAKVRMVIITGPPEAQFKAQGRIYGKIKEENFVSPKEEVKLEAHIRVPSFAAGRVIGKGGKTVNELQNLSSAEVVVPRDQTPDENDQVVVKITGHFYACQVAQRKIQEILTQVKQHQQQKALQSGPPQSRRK

Row | Sequence | 6-mer SELEX enrichment z-score (IMP3 KH1-4) | 6-mer SELEX enrichment z-score (IMP3 RRM1-2) | 6-mer SELEX enrichment z-score (IMP3 KH1-2) | 6-mer SELEX enrichment z-score (IMP3 KH3-4)
1 | CAGGGG | 1.07 | 0.236 | 1.41 | 
2 | ATAGAT | 1.54 | -0.212 | 1.27 | 
3 | TTATTC | 1.11 | 0.407 | 1.04 | 
4 | ATGGTC | 0.259 | 0.207 | 0.16 | 
5 | AGAGTG | -1.04 | -0.341 | -1.15 | -0.911
6 | ATAGGG | 0.796 | 0.134 | 0.789 | 
7 | AACGTC | -1.4 | -0.292 | -1.4 | -1.39
8 | CAATCG | -0.614 | 0.027 | -0.762 | -0.913
9 | CATTGT | 0.611 | 0.672 | 0.336 | 0.461
10 | TTGATA | 0.409 | -0.184 | 0.23 | 0.801
11 | CCTTGT | -0.206 | 0.007 | -0.266 | -0.28
12 | TGCGTG | -1.31 | 0.11 | -1.25 | -0.955
13 | TTCGCT | 0.295 | 0.312 | 0.356 | 0.328
14 | GCAAAC | -0.29 | 0.599 | -0.299 | -0.556
15 | ATGTAC | 0.398 | -0.117 | 0.091 | 0.203
16 | TCTCTG | -0.16 | 0.418 | -0.078 | -0.125
17 | TAAATG | 0.732 | -0.963 | 0.428 | 1.51
18 | CTGTAA | 0.272 | -0.478 | 0.263 | 0.288
19 | AGTGCT | -0.149 | 0.077 | -0.093 | -0.049
20 | GCGCAT | 0.173 | 0.602 | 0.146 | 0.161
21 | TTAACA | 1.47 | 0.365 | 1.68 | 2.22
22 | TCACCA | 0.783 | 1.65 | 0.799 | -0.089
23 | CAGAAC | 0.036 | 0.16 | 0.183 | -0.24
24 | ATTTTT | 1.22 | 0.368 | 1.29 | 2.05
25 | TCACGC | -0.021 | 0.897 | 0.067 | -0.375

From the supplement of paper PMC6531468
